Test results from patent US10668093B2, “Method for prolonging the over survival of a cancer patient” (National Yang-Ming University, priority 2015, dated 2020).

Experiments:
[1] = tested on: CHK-1 and p-CHK-1; experiment: Western blots of CHK-1 and p-CHK-1 in CTV-1 cells; assay type: cell-based; conditions: CTV-1, at IC50 for 0, 8, 12, 16 hours
[2] = tested on: CTV-1; experiment: Cell cycle distribution by BrdU assay; conditions: cell percentages; CTV-1, 12-hour treatment at IC50, BrdU assay

SMILES	expression of CHK-1 and p-CHK-1 [1]	G0G1 [2]	G2M [2]	S [2]	SubG0 [2]
COc1cccc2c1C(=O)c1c(O)c3c(c(O)c1C2=O)C[C@@](O)(C(=O)CO)C[C@@H]3O[C@H]1C[C@H](N)[C@H](O)[C@H](C)O1 [Doxo, Doxorubicin]	increased with time	19.4 ± 2.4	28.2 ± 3.5	49.0 ± 4.2	0.1 ± 0.04
O=C(CCCCCCC(=O)Nc1ccccc1)NO [SAHA, Suberoylanilide hydroxamic acid]	decreased	4.13 ± 1.0	11.5 ± 1.2	78.3 ± 6.8	2.0 ± 0.5
